Out of some 420,000 compounds screened, about 64,000 (15%) were called active. Inconclusive results, whose numbers are uncertain, are shown with a selection of clear calls. Calls follow the shape of the dose curve; as a rule, active = well fitted inhibition curve with a large enough effect; inconclusive = small, poorly fitted or top-dose-only effect; inactive = flat fitted curve, though single readings scatter. Potencies of inconclusive entries are left out as doubtful fits.
Assay: qHTS for Inhibitors of human tyrosyl-DNA phosphodiesterase 1 (TDP1): qHTS in cells in absence of CPT; also: nearly all actives have a fitted effect of over 55% in size
Conditions: DT40 Tdp1-/- hTDP1 cells, no CPT, ATP luminescence, 48 h; activity change, negative = growth inhibition: at 46.2 µM (top of the series)
Procedure, shortened: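 Luminescent ATP content (CellTiter-Glo) served as the growth readout. Knockout chicken DT40 cells expressing human TDP1 were exposed to compounds without camptothecin for a minimum 48 hr at 37 °C.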
% is scaled to controls: 0 for no effect and ±100 for the full control effect; potency is read from the fitted curve at half-maximal effect; tags tell the direction and shape of the fitted curve.

SMILES | Potency | activity change, negative = growth inhibition
COc1ccc(-c2nsc(SCC(=O)NCc3ccc4c(c3)OCO4)n2)cc1 | inconclusive [inhibitor, single point] | –
Cc1cc(N2CCOCC2)nc(N2CCOCC2)c1C#N | inconclusive [inhibitor, single point] | –
Cc1ccc(S(=O)(=O)Nc2cccc(C(=O)NCC(c3ccccc3)N(C)C)c2)cc1F (configuration not stated) | inconclusive [inhibitor, single point] | –
Cc1ccc(Nc2nc(CSc3nnc(-c4ccncc4)n3C)cs2)cc1 | inconclusive [inhibitor, single point] | –
Cc1ccc(S(=O)(=O)c2nc(S(=O)(=O)c3ccc(C)cc3)c(N3CCN(CCO)CC3)s2)cc1 | inconclusive [inhibitor, single point] | –
CC(=O)c1ccc(NC(=O)Nc2ccncc2)cc1 | inconclusive [inhibitor, single point] | –
Cc1ccc(S(=O)(=O)N2CCCC2C(=O)OCc2ccccc2)cc1 (configuration not stated) | – | inactive: -24.3%
COc1ccc(CNC(=O)CCCN2C(=O)NC3(CCCC3)C2=O)cc1 | – | inactive: 3.47%
C=CCN1C(=O)C(O)(CC(=O)c2ccc(OC)cc2OC)c2cc(Br)ccc21 (configuration not stated) | inconclusive [inhibitor, single point] | –
CCOc1ccc(NC(=O)C(=O)c2cc(C)n(-c3cc(C)cc(C)c3)c2C)cc1 | active: 20.6 µM | –
Cc1ccc(NC(=O)C2CCCN(S(=O)(=O)c3ccc4c(c3)oc(=O)n4C)C2)cc1Cl (configuration not stated) | inconclusive [inhibitor, single point] | –
CC(=O)c1ccc(NC(=S)NC(=O)/C=C/c2ccc(F)cc2)cc1 | inconclusive [inhibitor, partial curve, poor fit] | –
Cc1ccc([C@H]2N[C@]3(CCCN(Cc4ccccc4)C3=O)[C@H]3C(=O)N(Cc4ccccc4)C(=O)[C@@H]23)cc1 | inconclusive [inhibitor, partial curve] | –
O=c1c(-c2cccs2)nc2ccccc2n1C(CCc1ccccc1)c1nc2ccccc2[nH]1 (configuration not stated) | inconclusive [inhibitor, single point] | –
COc1ccc(S(=O)(=O)Nc2ccc(Cc3ccncc3)cc2)cc1C | inconclusive [inhibitor, partial curve] | –
Cn1nc([N+](=O)[O-])c2c(-c3nc4ccccc4s3)c(N)n(C3CCCCC3)c2c1=O | inconclusive [inhibitor, partial curve] | –
COc1ccc(-c2cc(C(=O)NCCc3ccccc3)c3c(-c4ccccc4)[nH]nc3n2)cc1OC | inconclusive [inhibitor, single point] | –

— PubChem BioAssay AID686978 (National Center for Advancing Translational Sciences (NCATS), 2013)
